GI50 and TGI data for four molecules are collected here from PubChem BioAssay (NCI).

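Step 1: Grow cells in 96-well plates. Step 2: Expose to compound for 48 hours at 5 concentrations. Step 3: Interpolate endpoints linearly; if unreached, use highest concentration. At the GI50, growth is halved. TGI denotes the concentration required for complete inhibition of growth.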

The experiment concerns NCI-H322M lung. Nature of the experiment: DTP human tumour cell line panel, 48 h.
In the case of `COc1ccc(C(=O)Nc2sc3c(c2C#N)CCC(=O)C3)cc1C(F)(F)F`, the GI50 is 5.11 µM and the TGI was over 100 µM.

For `O=C1NC(=NC2CCCCCC2)N/C1=C\c1ccc2ncoc2c1`, the GI50 was 2.65 µM and the TGI was 41.9 µM.

For the molecule `O=C(O)c1ccc(-c2ccc(/C=N/NC(=O)c3[nH]c4ccc(Br)cc4c3-c3ccccc3)o2)cc1`, the GI50 is 28.7 µM and the TGI is over 100 µM.

Turning to `Cc1ccc(NC(=O)[C@]23CCC(C)(C)CC2C2=CCC4[C@@]5(C)C[C@@H](O)[C@H](O)[C@@](C)(CO)C5CC[C@@]4(C)[C@]2(C)CC3)cc1` (stereo partly drawn), the GI50 was 14.2 µM and the TGI was 31.1 µM.
